Measured values taken from the supplement of paper PMC4466236.
In all, about 33,000 sequences were measured (“E-score (dimensionless, -0.5 to 0.5)”: median about -0.058, highest 2% from about 0.35 on). The list shows a part of the results.

What follows are sequences tested on MvaT (assay: PBM 8-mer E-score (mean of HK and ME arrays) (E-score (dimensionless, -0.5 to 0.5)); higher = stronger relative binding preference; most listed sequences are background and not binding sites).
Procedure, shortened: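 Full-length P. aeruginosa MvaT carrying an N-terminal glutathione S-transferase tag was tested by protein binding microarray following a previously described protocol. Two universal double-stranded 60-mer arrays, ME and HK, were used, each with a constant 25-mer primer region and a variable 35-mer region covering all 8-mers. The rank-based E-score is the mean of the two arrays, parsed with a custom script. Its range runs from -0.5 to 0.5 for each 8-mer.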

Sequence | PBM 8-mer E-score
ACAGTCGA | -0.137
AAAAGAAA | 0.25
GCACTACC | -0.0956
CTGTTCTC | 0.0149
CGCGAACC | -0.259
CGACAAAG | -0.127
AAGTTTTC | 0.267
ATTCCTGC | -0.00788
GCAAACAC | 0.0355
CCCTCGGC | -0.245
GAGTCTCC | -0.14
CAAATCTA | 0.015
CCGCAAAC | -0.105
TACCCAAA | 0.104
GGGGTGAC | -0.223
CTGAGTTC | -0.0713
CTCACTCC | -0.153
CTAAGTCC | 0.0862
GCACGCGA | -0.205
CCGTCGAA | -0.0658
ACGAGGTA | -0.17
AAATATTA | 0.438
ATCAATCC | -0.138
AGCATCAG | -0.14
ATAGTCCA | 0.134

Sequence | PBM 8-mer E-score
CATATTTC | 0.26
CCGATTGC | -0.162
CGTTCCCA | -0.168
CAACAATG | 0.232
CCCCATAG | -0.0375
GTGGACAC | -0.125
CCACCGAG | -0.278
GCGCGAGC | -0.24
CTATAGGC | -0.1
CTTGAAAG | 0.0824
AGCTCAAG | -0.133
ACACTATG | 0.17
ACTTGTAT | 0.249
GGGCAACC | -0.289
ATCACCCG | -0.161
CGATTGGC | -0.137
CTTCCCAA | -0.169
GATATAAC | 0.372
GTGGGGGA | -0.164
ATTATTTG | 0.351
ACCTTTCG | -0.14
CTCGTCCC | -0.183
CTCCAGCC | -0.328
TACGAGTA | 0.121
GCCTAAGA | -0.18

Sequence | PBM 8-mer E-score
GAGTCCGA | -0.209
GTGACTAA | 0.117
ACCCACGA | -0.126
GAGGCTGA | -0.223
ATATCTCA | 0.24
GGCGAGTA | -0.0712
GGAGTCTA | -0.17
ATCCTTAA | 0.0951
AAGTAAGC | 0.229
CCGAGGTC | -0.133
TCTCCTCA | -0.177
AATTTGGT | 0.209
ATGCTCCG | -0.0938
ACCACCCA | -0.0734
AGACTTAC | 0.128
TCCCGAAA | -0.073
AGTGGTAT | 0.118
AATCGCCA | -0.0398
TCAAGGAA | 0.000339
AAGAGTGC | -0.0214
ACAAGTAT | 0.301
ACACAACA | 0.211
AATGTTTC | 0.258
AATGGATG | 0.0767
ACAGGTAA | 0.08

Sequence | PBM 8-mer E-score
GTTCTGGA | 0.0616
GGAATACC | 0.104
AGAAAACC | -0.13
GCTATTAA | 0.272
CCCGGTCA | -0.209
GCACATGA | -0.0727
GTTGTCAA | 0.0974
ACCATTAG | -0.0308
GTAATACA | 0.295
ATATTGAC | 0.311
AAGCCCCT | -0.304
TCACTTAA | 0.166
ACTACGGC | -0.0988
CGACGTTA | 0.0202
ACTTGACA | 0.149
CTCTTTAC | 0.0884
GACGCGGC | -0.328
CAAGCGGC | -0.233
CGAAGGAG | -0.202
ACGAGTCG | -0.0915
CGTAACAA | 0.142
ATAAACTA | 0.356
ACATGGCC | -0.214
ACAACCTA | 0.0166
TTGACCAA | 0.0947

Sequence | PBM 8-mer E-score
ACAACCGT | -0.0347
GAGAGACC | -0.287
ACTCGAAA | 0.0967
ACGTCCGC | -0.185
TACATCTA | 0.223
CGCTTTAA | 0.0497
AATGTCAC | 0.0333
GTCTCTGA | -0.0291
ACATAGCT | 0.0352
ATTCTGTC | 0.0429
CACGATCC | -0.167
ATTCAGAA | 0.0979
AGAGCTAC | -0.0532
CGGCACTC | -0.168
CCGAAGGA | -0.248
CTAATTAG | 0.35
AGGGGCCC | -0.319
GCACAAGC | -0.143
AAATGATA | 0.267
ATGTAAAT | 0.327
TGATAGCA | -0.0138
CTGTCCGC | -0.266
AGCGGATG | -0.112
ATACACGG | 0.065
GACTTTCA | 0.0538

Sequence | PBM 8-mer E-score
GACAACCC | -0.101
CTTATGTC | 0.0334
CGGTTCCC | -0.306
GGGACAAA | -0.0263
CTCCAGAC | -0.174
TAGGTTAA | 0.0544
CAACCGCC | -0.215
TCCGTTAA | -0.0501
CCGTATAC | 0.00619
CCGAGACA | -0.0391
ATCCGGTG | -0.108
CATGGCCC | -0.251
AAGCGCTT | -0.0764
CTATAGCC | -0.168
CGGTGCAC | -0.121
ACTATTCA | 0.184
CCAGGTAC | -0.0781
AACCTGCC | -0.176
CGGAGAAA | -0.077
CAGCAGAC | -0.159
CAGCGCCG | -0.354
CCCCTTCG | -0.28
GCACATAA | 0.154
CCAGGTAA | -0.0204
AACTAATA | 0.323

Sequence | PBM 8-mer E-score
CCGTGTCC | -0.297
ACGTATCA | 0.0348
AGATCAAG | -0.0606
AAGGTTCG | -0.0294
GTTGGCAA | 0.021
TAGAGTAA | 0.18
CAAAGTCC | -0.13
TATGTGAA | 0.276
GCCTAACC | -0.244
CGCTAGGA | -0.172
ACCTGCGT | -0.176
CGCATACG | -0.0218
CCTTAAGG | 0.069
ATCAGTCC | -0.268
GGGTTGAA | 0.026
GTGGCCAA | -0.191
GGCCTTTA | -0.108
GAAGTAGC | -0.0327
AACCACAT | 0.00645
GATGGGGA | -0.11
ACAAAAGT | 0.217
TAAAGGCA | 0.122
AAGGGACG | -0.209
GGGAATCA | -0.0887
CAAAGCCG | -0.0804

Sequence | PBM 8-mer E-score
ACAAAATC | 0.166
ACTTGATG | -0.0563
CGAGTAGA | -0.159
ACGGGAGC | -0.235
CACAGCAG | -0.158
ATAAGGAC | 0.0678
CAACGGTA | -0.182
ACACGTGC | -0.0817
ATTATCAC | 0.24
TATCTTAA | 0.31
AATACGTA | 0.319
CCAGATGA | -0.0506
TAGGTCCA | -0.154
CTGCGTAC | -0.173
CCCAAGCC | -0.279
AATCGATT | 0.162
CAGCCACA | -0.253
CTGGCACC | -0.229
CATGAACG | -0.0794
AGTCTCAC | 0.0524
GGGGGCGA | -0.254
GCGAAACC | -0.227
ACGGGTAA | 0.0679
CAGCTTGG | -0.212
GCATGGCA | -0.197

Sequence | PBM 8-mer E-score
CACCGCAC | -0.0892
CCGAGAGC | -0.196
CTAACCTC | -0.159
AGGCCCAT | -0.0843
GAGGCCCC | -0.199
AAAGGAAC | -0.147
GCGCCCAA | -0.198
TCTATAGA | 0.0846
AAAGGTTA | 0.164
ACCGCCGC | -0.24
ATTAGCAA | 0.203
AAAAGCAG | 0.0803
GGTGATAC | -0.0312
ACCGCGTC | -0.142
TATCGTAA | 0.215
GGACGAAC | -0.182
CCGAATAC | 0.0428
AAATAATG | 0.387
CGTTGTAA | 0.174
